{
  "source": "patent US10736889B2",
  "about": "“Method of treating dyskinesia” (Rutgers, The State University of New Jersey, priority 2011, dated 2020)",
  "tested_on": "Parkinsonian monkeys with LID",
  "data": [
    {"smiles": "Oc1ccc2c3c1OC1[C@@H](O)CC[C@@]4(O)[C@@H](C2)N(CC2CCC2)CC[C@]314", "note": "(stereo partly shown) [Nalbuphine]", "values": [
      {"measurement": "sedation", "setting": "Example 1A, 0.1 and 0.2 mg/kg SC", "result": "No sedation occurred"},
      {"measurement": "dyskinesia duration", "setting": "Example 1A, 0.1 and 0.2 mg/kg SC with 75 mg levodopa methyl ester, vs levodopa alone", "result": "lasted for a shorter time"},
      {"measurement": "dyskinesia severity", "setting": "Example 1A, two monkeys, 0.1 and 0.2 mg/kg SC with 75 mg levodopa methyl ester (plus benserazide), vs levodopa alone, PD-MDS", "result": "ameliorated"},
      {"measurement": "sedation or other adverse effects", "setting": "Example 1B, 0.25 or 0.5 mg/kg SC", "result": "no sedation or other adverse effects"},
      {"measurement": "effect of 0.5 mg/kg compared with 0.25 mg/kg (dose-response)", "setting": "Example 1B, FIG. 2", "result": "slightly more pronounced than 0.25 mg/kg"},
      {"measurement": "severity and duration of dyskinesias", "setting": "Example 1B, three monkeys, 0.25 or 0.5 mg/kg SC before 75 mg SC L-dopa methyl ester (plus benserazide)", "result": "Substantial reduction"},
      {"measurement": "effect on Parkinsonism", "setting": "anti-LID efficacy of kappa agonism", "result": "without worsening Parkinsonism"}
    ]}
  ]
}
